Among all 330,000 compounds or so, about 4,200 (1.3%) were called active. This list was built around the results that the source calls inconclusive (neither active nor inactive); the mix of calls is not that of the screen. The call rests on the fitted dose curve; in most records, active means well fitted activation curve with a large enough effect; inconclusive means small, poorly fitted or top-dose-only effect; inactive means no such curve, though single readings can be large or run the other way. Potencies beside an inconclusive call are fits to weak or partial responses and may not hold up.
Assay: qHTS screen for small molecules that induce genotoxicity in human embryonic kidney (HEK293T) cells expressing luciferase-tagged ELG1; further: nearly all actives have a fitted effect of over 60% in size
Details: HEK293T ELG1-luciferase reporter, luminescence, 16 h; series mostly up to 46 µM
How it was run: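 HEK293T cells expressing luciferase-tagged ELG1 were treated with compound or DMSO for 16 hr at 37°C. Luciferase activity was then read after 30 min with ONE-Glo at room temperature; rising signal flags genetic stress.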
In the case of `CCCCNC(=O)c1cc(-c2ccc(F)cc2)on1`, the Potency was inconclusive: 13 µM [activator, partial curve].
In the case of `CC(=O)Nc1ccc(S(=O)(=O)NC2CCS(=O)(=O)C2)cc1Cl` (stereo not given), the Potency was “inactive”.
In the case of `CCOc1ccc(CNCCN2CCCC2)cc1`, the Potency was “inactive”.
With `CN(C)/C=C(/C(=O)c1ccc(Cl)cc1)S(=O)(=O)c1ccccc1` the Potency was inconclusive: 20.6 µM [activator, partial curve, poor fit].
With `COc1ccc(N2CCN(C(=O)C3CCC(Cn4c(=S)[nH]c5ccccc5c4=O)CC3)CC2)cc1` (stereo not given) the Potency was “inactive”.
With `Cc1cc(NC(=O)C(C)SCC(=O)Nc2ccc(Br)cc2Br)no1` (stereo not given) the Potency was inconclusive: 29.1 µM [activator, single point].
With `COc1ccc(Cc2nnc(NC(=O)Nc3ccc(C)cc3)s2)cc1OC` the Potency was inconclusive: 25.9 µM [activator, single point].
For `Nc1[nH][nH]c(=O)c1N=Nc1ccc2c(c1)OCO2`, the Potency was inconclusive: 16.4 µM [activator, partial curve].
In the case of `N/C(=N\OC(=O)COc1cc(Cl)c(Cl)cc1Cl)c1ccccn1`, the Potency was inconclusive: 2.06 µM [activator, full curve].
For `O=C1Nc2cc(C(=O)NCCN3CCCCCC3)ccc2S/C1=C\c1ccccc1`, the Potency was inconclusive: 32.6 µM [activator, partial curve, poor fit].
With `CCCN=Cc1sc2ccc(OCC)cc2c1O` the Potency was active: 23.1 µM.
For `COc1c(C)cc(S(=O)(=O)N2CCOCC2)c(C)c1C`, the Potency was “inactive”.
In the case of `O=c1oc2ccccc2cc1-c1csc(Nc2nc3ccc(F)cc3s2)n1`, the Potency was inconclusive: 29.1 µM [activator, single point].
With `CSCCC(N=C1NS(=O)(=O)c2ccccc21)C(=O)N1CCCC(C(N)=O)C1` (stereo not given) the Potency was “inactive”.
With `CNC(=O)Nc1cc(NC(=O)NC)cc(C(F)(F)F)c1` the Potency was “inactive”.
For `COc1ccccc1C(=O)O/N=C(\N)c1ccccn1`, the Potency was inconclusive: 2.91 µM [activator, full curve].
In the case of `Cc1ccc(Sc2ncccc2C(=O)N(C)Cc2cccs2)c(C)c1`, the Potency was “inactive”.
In the case of `CCCN(CCC)CCNC(=O)c1cc2c(=O)n(CC)c3ccccc3c2s1`, the Potency was inconclusive: 13 µM [activator, partial curve, poor fit].
For `CCOc1ccc(CCNC(=O)c2cc3c(C)nccc3[nH]c2=O)cc1OCC`, the Potency was “inactive”.
With `Cn1cccc1C(=O)N/N=C/c1c(Cl)cccc1Cl` the Potency was active: 16.4 µM.
With `CCc1ccc2c(Cl)c(C(=O)N/N=C/c3c[nH]c4ccccc34)sc2c1` the Potency was “inactive”.
With `CCOc1cc(NC(=O)c2cccs2)c(OCC)cc1NC(=O)CCC(=O)NCC1CCCO1` (stereo not given) the Potency was “inactive”.
With `Cc1ccc(CN2CCN(CC(=O)NCCCN3CCN(c4ccc(F)cc4)CC3)C2=O)cc1` the Potency was “inactive”.
For `O=C1CN(C(=O)COC(=O)COc2ccccc2)c2ccccc2N1`, the Potency was “inactive”.
With `COC(=O)[C@H](Cc1ccccc1)NC(=O)O[C@@H]1C(=O)c2cc(Br)ccc2O[C@H]1c1cccc(OC)c1` the Potency was inconclusive: 3.66 µM [activator, full curve].
In the case of `O=C(NC(=O)c1ccccc1)Nc1ccc(Cl)cn1`, the Potency was active: 1.46 µM.
For `COc1ccc(NC(=O)c2c(Cl)nc3ccccn23)cc1`, the Potency was inconclusive: 18.3 µM [activator, single point].
With `CN(C)c1nc2c(c(=O)[nH]c(=O)n2C)n1Cc1ccccc1Br` the Potency was inconclusive: 18.4 µM [activator, partial curve, poor fit].
In the case of `Cc1ccc(Nc2nc(CSc3nnc(-c4ccccc4)n3C)cs2)cc1`, the Potency was inconclusive: 11.6 µM [activator, partial curve, poor fit].
For `Cc1cccc(OCC(=O)Nc2nccs2)c1C`, the Potency was active: 2.06 µM.
With `O=C1CC(N2CCN(Cc3ccccc3)CC2)C(=O)N1c1ccc2c(c1)OCCO2` (stereo not given) the Potency was inconclusive: 4.61 µM [activator, single point].
In the case of `COc1ccc(CC(=O)c2ccc(O)cc2O)cc1`, the Potency was inconclusive: 13 µM [activator, partial curve, poor fit].
In the case of `O=C(/C=C/NNC(=O)c1ccccc1)c1ccc(Br)cc1`, the Potency was inconclusive: 18.4 µM [activator, single point].
In the case of `N/C(=N\OC(=O)/C=C/c1ccc(Br)cc1)c1ccccn1`, the Potency was inconclusive: 6.51 µM [activator, partial curve].
In the case of `O=C(N/N=C/c1c(Cl)cccc1Cl)c1n[nH]c2c1CCCC2`, the Potency was inconclusive: 6.51 µM [activator, partial curve].
In the case of `Cc1ccc(NC(=O)CC2Nc3ccccc3NC2=O)cc1Cl` (stereo not given), the Potency was inconclusive: 25.9 µM [activator, partial curve, poor fit].
With `O=c1[nH]ncc(N/N=C\c2ccncc2)c1Cl` the Potency was inconclusive: 25.9 µM [activator, partial curve, poor fit].
In the case of `COc1ccc(C=NNC(=O)c2cc(C)oc2C)cc1O`, the Potency was inconclusive: 13 µM [activator, partial curve].
For `COc1cc(OC)c2c(-c3cccc(-c4ccc(O)cc4)c3)cc(=O)oc2c1`, the Potency was “inactive”.
In the case of `Cc1ccc(N=Nc2c(N)n[nH]c2N)cc1`, the Potency was inconclusive: 23.1 µM [activator, partial curve, poor fit].
For `COc1ccc(C(=O)n2c(-c3ccco3)nc3ccccc32)cc1`, the Potency was inconclusive: 20.6 µM [activator, partial curve, poor fit].
In the case of `COc1ccccc1N1CCN(/N=C\c2sccc2C)CC1`, the Potency was inconclusive: 18.3 µM [activator, partial curve].
In the case of `COc1ccc(CCN2CC(C(=O)N(C)Cc3c(C)n[nH]c3C)CCC2=O)cc1` (stereo not given), the Potency was “inactive”.
In the case of `Nc1c(-c2ccccc2)cnn1-c1ccc(C(=O)O)cc1`, the Potency was inconclusive: 0.891 µM [activator, partial curve, poor fit].
With `CC(C)C(=O)Nc1nnc(NC(=S)Nc2ccccc2)s1` the Potency was inconclusive: 20.6 µM [activator, single point].
In the case of `CCCCCCC(=O)N(O)C1CC(=O)N(c2ccccc2)C1=O` (stereo not given), the Potency was inconclusive: 25.9 µM [activator, single point].
For `O=C(Nc1cccc(Cl)c1)c1ccc2ncsc2c1`, the Potency was inconclusive: 9.2 µM [activator, partial curve, poor fit].
With `CC(C)COC(=O)c1ccc(NC(=O)C2C3C=CC(C3)C2C(=O)O)cc1` (stereo not given) the Potency was inconclusive: 5.17 µM [activator, partial curve].
With `O=C(Nc1ccccc1-c1ccccc1)c1ccc(=O)[nH]n1` the Potency was inconclusive: 18.3 µM [activator, partial curve, poor fit].
In the case of `O=C(NCc1csc(-c2cccs2)n1)C1CC1`, the Potency was inconclusive: 20.6 µM [activator, partial curve, poor fit].
In the case of `O=C(c1ccc2c(c1)OCO2)N1CCCc2ccccc21`, the Potency was inconclusive: 29.1 µM [activator, partial curve, poor fit].
In the case of `C[C@@H](CO)NC(=O)c1ccc2c3n(nc2c1)-c1ccc(Cl)cc1CO3`, the Potency was active: 7.3 µM.
With `COc1ccc(C2(C)NC(=O)N(CC(=O)Nc3ccc(S(=O)(=O)N4CCCC4)cc3)C2=O)cc1` (stereo not given) the Potency was “inactive”.
In the case of `COc1ccc(/C=C2\CCc3ccccc3C2=O)cc1CN1CCOCC1`, the Potency was inconclusive: 25.9 µM [activator, single point].
With `CCc1ccc(NC(=O)CSc2nnc(-c3cnccn3)n2Cc2ccco2)cc1` the Potency was inconclusive: 25.9 µM [activator, partial curve, poor fit].
In the case of `Oc1c(C(c2ccccc2Cl)N2CCCC2)ccc2cccnc12` (stereo not given), the Potency was inconclusive: 29.1 µM [activator, single point].
For `CCOCCOC(=O)c1[nH]c2c(c1C)C(=O)CC(c1cccs1)C2` (stereo not given), the Potency was inconclusive: 7.3 µM [activator, partial curve, poor fit].
For `Cc1ccc(-c2nnc(-c3cccc(Br)c3)o2)cc1`, the Potency was active: 8.2 µM.
With `O=C(Nc1ccc(NC(=O)C2CC2)cn1)c1ccccc1` the Potency was inconclusive: 0.73 µM [activator, full curve].
With `Cc1ccc(-c2cc(C(=O)N/N=C/c3c[nH]c4ccccc34)[nH]n2)cc1` the Potency was “inactive”.
With `O=S1(=O)N=C(N2CCN(c3ccc(F)cc3)CC2)c2ccccc21` the Potency was inconclusive: 18.4 µM [activator, partial curve, poor fit].
With `CCCCNc1c(-c2cccc(-c3cc(C(C)=O)cs3)c2)nc2cc(C)ccn12` the Potency was “inactive”.
In the case of `Cc1cc(C)c(C(=O)CSc2nc3ccccc3c(=O)[nH]2)cc1C`, the Potency was “inactive”.
With `CCC(=O)Nc1ccc(-c2cc3ccccc3oc2=O)cc1` the Potency was active: 3.66 µM.
In the case of `COc1ccccc1N1CCN(CC(=O)Nc2cc(F)ccc2C)CC1`, the Potency was “inactive”.
In the case of `c1ccc2c(C3=NNC(=NC4CC4)SC3)c[nH]c2c1`, the Potency was inconclusive: 3.66 µM [activator, full curve].
With `COc1ccc(-c2cc3nc4ccccc4n3c(N)c2C#N)cc1` the Potency was “inactive”.
With `O=C(Nc1ccccc1Br)c1cc(=O)c2ccccc2o1` the Potency was active: 7.3 µM.
With `CCN(c1ccccc1)c1nc2ccsc2c(=O)s1` the Potency was inconclusive: 13 µM [activator, partial curve, poor fit].
With `Nc1cc(=O)[nH]c(SCC(=O)Nc2ccccc2-c2ccccc2)n1` the Potency was “inactive”.
For `O=C(Nc1ccn(Cc2ccccc2)n1)c1cccc(F)c1`, the Potency was active: 23.1 µM.
With `CCCCNCCOCCOc1ccc(F)cc1` the Potency was “inactive”.
With `O=C(N/N=C/c1cccc(F)c1)c1c(O)c2ccccc2[nH]c1=O` the Potency was inconclusive: 20.6 µM [activator, single point].
For `Cc1ccc(N2Cc3ccccc3C2=O)cc1`, the Potency was active: 1.64 µM.
With `O=C(CCN1C(=O)/C(=C\C=C\c2ccccc2)SC1=S)Nc1ccc(C(=O)O)cc1` the Potency was inconclusive: 4.61 µM [activator, partial curve].

Reference: PubChem BioAssay AID504466 (National Center for Advancing Translational Sciences (NCATS), 2011)
Potency means the concentration at half of the fitted maximal effect; tags describe the fitted curve by direction and shape.
